PubChem BioAssay AID493208 (National Center for Advancing Translational Sciences (NCATS), 2011)
Among all 44,000 compounds or so, about 340 (0.77%) were called active. About 5% were inconclusive and are not listed. Calls follow the shape of the dose curve; as a rule, active = well fitted inhibition curve with a large enough effect; inconclusive = small, poorly fitted or top-dose-only effect; inactive = flat fitted curve, though single readings scatter. The list shows a part of the results.

Test: Acumen qHTS Assay for Inhibitors of the mTORC1 Signaling Pathway in MEF (Tsc2-/-, p53-/-) Cells: Sytravon;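 also: plate controls were DMSO for no effect and rapamycin for full effect; nearly all actives have a fitted effect of over 50% in size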
Conditions: phospho-rpS6 immunofluorescence/PI, 24 h; series mostly up to 38.3 µM; activity change, negative = inhibition: at the top concentration
In short: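 Tsc2-/-, p53-/- MEFs (empty-vector stable line) in DMEM + 10% FBS were treated with compounds 24 h at 37 degree Celsius, fixed, and immunostained for phospho-rpS6 (Alexa-488) with propidium iodide counterstain. Laser-scanning cytometry gave % positive cells, normalized against 7.5 nM rapamycin and DMSO.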

Activity change, negative = inhibition, inactive:
CCc1ccc(NC(=O)CSC2=Nc3ccccc3C3=NC(CC(=O)NCc4cccs4)C(=O)N23)cc1 (configuration not stated) 0.298%
CCC(Cn1nnc2ccccc2c1=O)NC(=O)Nc1cc(OC)cc(OC)c1 (configuration not stated) -6.01%
Cc1cc2c(cc3c(SCc4cccc(Cl)c4)nnc(C)n32)o1 -4.85%
CCC(=O)N1CCc2cc(Br)cc(S(=O)(=O)N3CCC(C(=O)Nc4cccc(C)c4)CC3)c21 2.73%
CNC(=O)c1cccc(-n2c(C)nc3cccnc32)c1C 0.973%
O=c1c2cccnc2n(Cc2ccc(Cl)cc2)c(=O)n1Cc1ccc(F)cc1 -2.38%
CCCSc1nnc(NC(=O)Cc2coc3cc(C)ccc23)s1 -2.64%
CC(=O)c1ccc(NC(=O)CSc2nc3c(=O)n(C)c(=O)n(C)c3n2C)cc1 -0.426%
CC(=O)Nc1ccc(S(=O)(=O)N2CCN(c3ccc(C)c(C)c3)CC2)cc1 -16.2%
Cc1cccc(NC(=O)Nc2ccc(C)c(C)c2)n1 1.79%
Cc1cc(OCC(=O)Nc2ccc(C(=O)OC3CCCCC3)cc2)ccc1Cl 6.15%
CNC(=O)C1CCC(Cn2c(=O)c3sccc3n(CC(=O)Nc3cc(C)cc(C)c3)c2=O)CC1 (configuration not stated) -6.93%
COc1cccc(NC(=O)Cn2nc(-c3ccncc3)ccc2=O)c1 -10.6%
CCOc1ccc(NC(=O)C(=O)NCCc2sc(-c3ccc(C)cc3)nc2C)cc1 -1.12%
CC(C)c1ccc(C(=O)CC2(O)C(=O)N(CCc3ccccc3)c3ccc(Cl)cc32)cc1 (configuration not stated) -25.8%
O=C(c1c[nH]c2ccc(S(=O)(=O)Nc3ccccc3F)cc2c1=O)N1CCCCCC1 -9.2%
COc1ccc(OC)c(NC(=O)C2CCN(S(=O)(=O)c3c(C)noc3/C=C/c3ccc(C)cc3)CC2)c1 2.23%
CC1CCCCN1CCCNC(=O)c1sc2ncccc2c1-n1cccc1 (configuration not stated) -0.0938%
CCC(C)n1c(=N)c(C(=O)NCc2ccco2)cc2c(=O)n3cc(C)ccc3nc21 (configuration not stated) 12.3%
Cc1cccc(Cn2c(CN3CCC(C(=O)NCc4ccccc4Cl)CC3)cc3ccccc32)c1 0%
Cc1ccc(C(=O)Nc2cc(-c3nc4cc(Cl)ccc4o3)ccc2C)c(C)c1 1.22%
O=S(=O)(NCc1csc(-c2ccccc2)n1)c1ccccc1 -2.3%
COc1ccc(Cn2c(CNS(=O)(=O)c3ccc(Cl)s3)nc3cccnc32)cc1 -11.1%
COC(=O)c1sc(N2C(=O)c3oc4cc(C)c(C)cc4c(=O)c3C2c2ccccc2F)nc1C (configuration not stated) 5.33%
CCCN1C(=O)c2[nH]nc(-c3ccc(OC)cc3)c2C1c1ccccn1 (configuration not stated) -5.63%
COc1ccc(CN2CCc3nc(N4CCN(c5ccc(F)cc5)CC4)ncc3C2)c(OC)c1OC -1.6%
Cc1ccc(NC(=O)c2cnc3cc(C)ccn3c2=O)c(C)c1 1.48%
COc1ccc(-c2cc(C(=O)Nc3cc(C)nn3-c3ccccc3)no2)cc1OC -19%
CCCCSc1nc(-c2cccc(OC)c2)nc2c1Cc1c(CO)cnc(C)c1O2 4.47%
CC1CCCCN1C(=O)CN1CCSc2ccccc21 (configuration not stated) 0.178%
CCC(=O)Nc1ccc(CC)cc1-c1nc2ccccc2n(CC(=O)c2ccc(OC)cc2)c1=O -0.294%
CCc1nonc1NC(=O)c1oc2cc(C)c(C)cc2c1C -2.5%
Cc1ccc(-c2cc(NC(=O)c3cccc(C)c3)on2)cc1 -3.44%
O=S(=O)(NCc1ccc(F)cc1)c1ccc2[nH]c3c(c2c1)CCCC3 -13.4%
COc1ccc(NC(=O)C2Cc3ccccc3CN2S(=O)(=O)c2ccccc2)cc1OC (configuration not stated) 12%
COc1ccc(C(=O)Oc2ccc(C(c3c(C)[nH][nH]c3=O)c3c(C)[nH][nH]c3=O)cc2)cc1 5.91%
CCc1cccc(-n2c(=O)c3cccnc3n2CC(=O)Nc2ccc(OC)c(Cl)c2)c1 -5.76%
CCc1ccccc1NC(=O)CCCn1c(=O)c2cccn2c2ccccc21 0%
COc1cccc(-n2c(SCC(N)=O)nc3c(oc4ccccc43)c2=O)c1 -1.66%
O=C1CN(C(=O)Cc2ccccc2)C(c2ccc(F)cc2)c2cc(Br)ccc2N1 (configuration not stated) 1.61%
CCOc1ccc(CCNCc2c(C(=O)O)c(C)n(Cc3ccccc3F)c2C)cc1 2.47%
Cc1ccc(S(=O)(=O)N2CCc3cc(C(=O)Nc4ccc(Cl)cc4C)ccc32)cc1 -3.03%
CCCc1nn2c(=O)cc(COC(=O)c3ccc(NC(=O)COc4ccccc4F)cc3)nc2s1 0%
CC1Cc2cc(S(=O)(=O)NCc3ccc(Cl)cc3)ccc2N1C(=O)C1CCC1 (configuration not stated) 1.25%
CC(C)c1ccc(N2C(=O)N(Cc3cccc([N+](=O)[O-])c3)c3ccccc3S2(=O)=O)cc1 -0.029%
CCOc1ccc(NC(=O)[C@@H](c2ccccc2)N2Cc3ccccc3C2=O)cc1 -13.5%
Cc1noc(-c2ccc(-c3noc(-c4ccc([N+](=O)[O-])c(C)c4)n3)cc2)n1 -3.48%
CCN(CC)c1ccc(NC(=O)CCc2c(C)nc3ncnn3c2C)c(C)c1 -0.969%
Cc1cccn2c(=O)c(C(=O)N3CCN(c4ccc(Cl)cc4)CC3)cnc12 0.518%
O=S(=O)(NCCc1csc2nc(-c3ccccc3)nn12)c1ccc(Oc2ccccc2)cc1 -5.73%
CCOC(=O)c1cc2c(=O)n3ccccc3nc2n(Cc2ccco2)c1=NC(=O)c1cccc(Br)c1 -5.13%
Cc1ccc(Cl)cc1N1CCN(C(=O)c2noc3c2CCCC3)CC1 2.04%
Cc1ccc(-n2nnnc2CNC(=O)C2CC(=O)N(c3ccccc3)C2)cc1C (configuration not stated) 2.86%
COc1ccc(Cl)cc1NC(=O)Cn1nnc2sc(-c3ccccc3)cc2c1=O -1.61%
COc1ccc(CCNC(=O)CCCCn2c(=O)c3ccccc3n(Cc3ccccc3)c2=O)cc1OC -24.4%
Fc1ccccc1N1CCN(c2ncnc3c2nc2n3CCCC2)CC1 1.06%
CCOC(=O)c1ccc(NC(=O)CSc2ncc(S(=O)(=O)c3ccc(C)c(Cl)c3)c(=O)[nH]2)cc1 -5.76%
CCCCN(C)c1nnc(NC(=O)Nc2ccc(Br)c(C)c2)s1 -1.3%
CCn1cc2nc(SCC(=O)Nc3ccc(OC)cc3OC)n(Cc3ccc(Cl)cc3)c(=O)c2n1 -4.17%
CCOCCc1nn2c(=O)cc(COC(=O)c3ccccc3NC(=O)c3ccc(C)cc3)nc2s1 25.5%
CCOc1ccc(NC(=O)Cn2cc(C(=O)c3ccc(C)cc3)c(=O)c3cc4c(cc32)OCO4)cc1 -3.85%
CCc1ccc(CN(Cc2ccco2)C(=O)c2cc(-c3ccc(C)c(F)c3)on2)cc1 -6.99%
CCn1c2c(c(=O)n3ncc(C(=O)Nc4ccc(Cl)cc4C)c13)CN(Cc1ccc(OC)cc1)CC2 3.41%
Brc1cccc(-c2nnn3c2nc(N2CCCCC2)c2ccccc23)c1 -19.6%
Cc1ccc2nc3c(c(Nc4ccc(C)c(C)c4)c2c1)CCC3 -9.75%
O=C(CNS(=O)(=O)c1cccs1)N1CCN(c2ccccc2F)CC1 -1.96%
CCCn1c(=O)c2sccc2n2c(CCCC(=O)NC3CCCCC3)nnc12 0.385%
Cc1ccc(F)cc1S(=O)(=O)N1CCC(c2nc3ccccc3s2)CC1 -12.6%
Cc1ccccc1Cn1c(C)c(CNCCCc2ccccc2)c(C(=O)O)c1C 0.169%
COc1ccc(C2C=C(c3ccc(Cl)cc3)Nc3nc(NC(=O)CCC(=O)O)nn32)cc1 (configuration not stated) -0.547%
O=c1c2sc3ccccc3c2n(Cc2ccc(Cl)cc2)c(=O)n1Cc1ccco1 2.97%
COc1ccc(-c2csc3nc(-c4ccc(C)cc4)oc(=O)c23)cc1OC -1.54%
Cc1ccc(NC(=O)CCc2nc3cccnc3n2-c2ccccc2)cc1Cl 2.28%
Cc1ccc(N(Cc2cccs2)C(=O)c2ccccc2[N+](=O)[O-])cc1 -8.08%
CCC(C)NC(=O)Cn1c(=O)c2cccn2c2ccc(F)cc21 (configuration not stated) 1.91%
CCCOc1cccc(C(=O)N2CCCCC2CCN2CCCCC2)c1 (configuration not stated) -9.71%
O=C(Nc1ccc(F)cc1Cl)c1cnc(N2CCOCC2)c2ccccc12 0.359%
COc1cccc(CNC(=O)c2cc(=O)[nH]c3ccc(S(=O)(=O)N4CCCC4)cc23)c1 0.175%
Cc1ccccc1NC(=O)CCn1nc(-c2ccc(Cl)cc2)c2ccccc2c1=O 8.53%
COc1ccc(CNC(=O)CC2Oc3ccc(C)cc3NC2=O)cc1 (configuration not stated) -1%
Cc1ccc(S(=O)(=O)N2CCc3cc(C(=O)Nc4c(C)cccc4C(C)C)ccc32)cc1 -3.21%
COc1cccc(CC(=O)Nc2ccc3nc(Nc4cccc(C(F)(F)F)c4)cc(C)c3c2)c1 -7.77%
COC(=O)c1cc2oc3ccccc3c2n1CC(=O)Nc1ccc(F)c(Cl)c1 -7.64%
CCOc1ccc(CCNC(=O)c2nn(C)c3c2CSc2ccc(C)cc2-3)cc1OCC 12.3%
COc1ccc(CCNc2nc(SCc3cccc(Cl)c3)nc3ccccc23)cc1OC -1.3%
Cc1cccc(Cn2c(CN3CCCC(C)C3)nc3c2c(=O)n(C)c(=O)n3C)c1 (configuration not stated) 2.35%
O=C(NCc1ccccc1)c1nc(-c2ccc(Cl)cc2)n2c1CCCCC2 -1.62%
Clc1ccc2nc(-c3cccs3)c(Nc3ccc4c(c3)OCCO4)n2c1 0.164%
CCOC(=O)c1cc(OC(=O)c2cc(OC)cc(OC)c2)n(-c2ccccc2)n1 3.26%
CCc1nonc1NC(=O)c1oc2ccc(Cl)cc2c1C 2.82%
CCOC(=O)c1c(NC(=O)CSc2cn(CCNC(=O)c3ccc(OCC)cc3)c3ccccc23)sc2c1CCC2 1.64%
Cc1ccc(Cl)cc1NC(=O)Cn1c(SCC(=O)NCc2ccccc2)nc2ccccc21 1.21%
CC1Cc2cc(S(=O)(=O)NCc3ccccc3)ccc2N1C(=O)C1CCC1 (configuration not stated) -13.6%
CC1=C(C(=O)OC2CCCCCC2)C(c2ccc(Cl)cc2Cl)CC(=O)N1 (configuration not stated) -8.24%
CC(C)(C)c1ccccc1NC(=O)c1cnn2c(C(F)F)cc(-c3ccccc3)nc12 -4.25%
COc1ccccc1NC(=O)CSc1oc(-c2ccc(F)cc2)nc1S(=O)(=O)c1ccc(Br)cc1 -12.4%
CCOC(=O)c1cnc(N2CCN(c3ccc(C)cc3C)CC2)c2ccccc12 -8.23%
